# The other results are listed elsewhere or left out.
# Experiments:
# [1] = test system: HSkMC (human skeletal muscle cells); assay: cytotoxicity call (relative viability < 0.9); settings: 10 µM
# [2] = test system: HepG2; assay: cytotoxicity call (relative viability < 0.9); settings: 10 µM
# [3] = test system: S. aureus RN4220; assay: growth inhibition call (relative growth <= 0.2); settings: 50 µM
SMILES,cytotoxicity call [1],cytotoxicity call [2],growth inhibition call [3]
COCC(=O)Nc1ccc2c(c1)OC[C@@H](C)N(C(=O)c1ccccc1F)C[C@@H](C)[C@H](OC)CN(C)C2=O,inactive,inactive,inactive
NCc1ccccc1N1CCC(CO)CC1,inactive,inactive,inactive
O=C(C[C@@H]1CC[C@H]2[C@@H](COC[C@H](O)CN2C(=O)c2cnccn2)O1)N1CCN(c2ccccc2)CC1,inactive,inactive,inactive
C[C@@H]1CN([C@@H](C)CO)C(=O)Cc2cc(NS(C)(=O)=O)ccc2O[C@@H]1CN(C)S(C)(=O)=O,inactive,inactive,inactive
COc1ccc(CN(C)C[C@@H]2OCCCC[C@@H](C)Oc3ccc(NC(=O)CCC(F)(F)F)cc3C(=O)N([C@H](C)CO)C[C@@H]2C)cc1,inactive,inactive,inactive
O=C(C[C@@H]1CC[C@H]2[C@@H](COC[C@@H](O)CN2C(=O)Nc2cccc(F)c2)O1)NCc1ccccc1Cl,inactive,inactive,inactive
C[C@H]1CN([C@@H](C)CO)C(=O)c2cc(NC(=O)CCN3CCOCC3)ccc2O[C@H]1CN(C)CC1CCCCC1,inactive,inactive,inactive
COc1ccccc1-c1ccc2c(c1)O[C@H](CN(C)CC1CCOCC1)[C@H](C)CN([C@@H](C)CO)S2(=O)=O,inactive,inactive,inactive
C[C@H]1CN([C@@H](C)CO)C(=O)c2cc(C#CC3(O)CCCC3)cnc2O[C@H]1CN(C)S(=O)(=O)c1ccccc1,inactive,inactive,inactive
COc1cccc(S(=O)(=O)N(C)C[C@@H]2Oc3ncc(C#Cc4cccc(F)c4)cc3C(=O)N([C@H](C)CO)C[C@@H]2C)c1,inactive,inactive,inactive
CN[C@@H]1[C@H](O[C@H]2[C@H](O[C@@H]3[C@@H](O)[C@H](O)[C@@H](NC(=N)N)[C@H](O)[C@H]3NC(=N)N)O[C@@H](C)[C@]2(O)CO)O[C@@H](CO)[C@H](O)[C@H]1O.CN[C@@H]1[C@H](O[C@H]2[C@H](O[C@@H]3[C@@H](O)[C@H](O)[C@@H](NC(=N)N)[C@H](O)[C@H]3NC(=N)N)O[C@@H](C)[C@]2(O)CO)O[C@@H](CO)[C@H](O)[C@H]1O,inactive,inactive,inactive
CCNC(=O)[C@H]1[C@H](CO)[C@H]2Cn3c(ccc(-c4ccccc4OC)c3=O)[C@H]2N1S(C)(=O)=O,inactive,inactive,inactive
CC(C)NC(=O)Nc1ccc2c(c1)C(=O)N([C@@H](C)CO)C[C@@H](C)[C@H](CN(C)Cc1ccccc1)OCCCC[C@@H](C)O2,inactive,inactive,inactive
CN1C(=O)c2cc(NC(=O)c3ccc(F)c(F)c3)ccc2OC[C@@H]2O[C@H](CC(=O)N3CCOCC3)CC[C@@H]21,inactive,inactive,inactive
O=C(C[C@@H]1C=C[C@@H](NC(=O)c2ccc3c(c2)OCO3)[C@@H](CO)O1)NCc1ccc(Oc2ccccc2)cc1,inactive,inactive,inactive
Cc1noc(C)c1NC(=O)Nc1cccc2c1O[C@@H](CN(C)C(=O)NC(C)C)[C@H](C)CN([C@@H](C)CO)C2=O,inactive,inactive,inactive
COc1ccc(S(=O)(=O)N(C)C[C@@H]2Oc3ccc(NS(=O)(=O)c4ccc(C)cc4)cc3CC(=O)N([C@H](C)CO)C[C@H]2C)cc1,inactive,inactive,inactive
CNC(=O)c1cc(N)ccc1F,inactive,inactive,inactive
C[C@H](CO)N1C[C@H](C)[C@@H](CN(C)S(=O)(=O)c2ccc(F)cc2)Oc2c(NC(=O)c3ccncc3)cccc2C1=O,inactive,inactive,inactive
CC(C)NC(=O)Nc1ccc2c(c1)C(=O)N([C@@H](C)CO)C[C@H](C)[C@H](CN(C)Cc1ccccc1)OCCCC[C@H](C)O2,inactive,inactive,inactive
O=C(Nc1ccc(C(F)(F)F)cc1)Nc1ccc2c(c1)[C@H]1C[C@@H](CC(=O)N3CCc4ccccc4C3)O[C@H](CO)[C@H]1O2,inactive,active,inactive
C[C@@H]1CCCCO[C@H](CN(C)C(=O)CCCN(C)C)[C@H](C)CN([C@@H](C)CO)C(=O)c2cc(NS(C)(=O)=O)ccc2O1,inactive,inactive,inactive
C[C@@H]1CN([C@@H](C)CO)C(=O)c2cc(NC(=O)c3ccncc3)ccc2O[C@@H](C)CCCCO[C@H]1CN(C)CC1CCCCC1,inactive,inactive,inactive
COc1cc(C(=O)O)cc(OC)c1O,inactive,inactive,inactive

# Source: the antibiotic and cytotoxicity screens of Wong et al. (2023)
